Measurements published in PubChem BioAssay (NCATS).
This is one part of the list. Shown are side measurements of this screen, not its main read-out; they come without a call. Words in brackets tell the shape of the fitted curve; partial curves, single points and poor fits give uncertain potencies.

Test: qHTS drug screen for cell cycle checkpoint inhibitors in PARPi-resistant BRCA-mutant ovarian cancer cell lines. (AID 1963452)
Settings: PEO1/OlaR viability, CellTiter-Glo luminescence, 96 h; measured here: PEO1 parental viability
In short: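 PEO1, PEO4 and PEO1/OlaR ovarian cancer cells, 600 per well, exposed 96 h at 37C to a dilution series. Viability read by CellTiter-Glo luminescence, normalized to DMSO and empty wells; activity summarized as Z-AUC.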
Tags tell the direction and shape of the fitted curve.

Question: For `CCS(=O)(=O)N1CCC(C(C)n2c(C)c(C(=O)NCc3c(OC)cc(C)[nH]c3=O)c3ccccc32)CC1` (stereo not given), which AC50 is on record?
Answer: The AC50 was 6.92 µM [rising, partial curve, poor fit].

Question: For `O=C(NCC(=O)N1CCCC1)Nc1ccc2cnccc2c1`, which AC50 is on record?
Answer: The AC50 was 9.77 µM [rising, partial curve, poor fit].

Question: For `CNC(=O)c1ccc(C)c(-n2c(C)cc(OCc3ccc(F)cc3F)c(Br)c2=O)c1`, which AC50 is on record?
Answer: Its AC50 is 2.75 µM [falling, full curve, poor fit].

Question: For `CO[C@@H]1[C@@H](O)[C@H](O)[C@@H](n2c3c(Cl)cccc3c3c4c(c5c6cccc(Cl)c6[nH]c5c32)C(=O)NC4=O)O[C@H]1CO`, which AC50 is on record?
Answer: The AC50 was 0.049 µM [falling, full curve, poor fit].

Question: Which AC50 does the source give for `COc1cc2c(cc1OCCCN1CCCC1)N=C(N)C21CCC1` here?
Answer: Its AC50 is 27.5 µM [rising, partial curve, poor fit].

Question: With `Cc1cc2c(F)c(Oc3ncnn4cc(OC[C@@H](C)OC(=O)[C@H](C)N)c(C)c34)ccc2[nH]1` as the molecule, how does the AC50 read?
Answer: Its AC50 is 0.436 µM [falling, full curve].

Question: For `OC(c1ccc(-c2ccc(CN3CCN(Cc4ccncc4)CC3)cc2)c(F)c1)(C(F)(F)F)C(F)(F)F`, which AC50 is on record?
Answer: The AC50 was 0.11 µM [falling, full curve, poor fit].

Question: With `C[C@@H](O)[C@H]1C(=O)N2C(C(=O)O)=C(S[C@@H]3CN[C@H](CNS(N)(=O)=O)C3)[C@H](C)[C@H]12` as the molecule, how does the AC50 read?
Answer: The AC50 was 0.0977 µM [rising, full curve].

Question: Which AC50 does the source give for `CC(C)[C@H]1C(=O)N[C@@H](CCCN=C(N)N)C(=O)NCC(=O)N[C@@H](CC(=O)O)C(=O)N[C@H](Cc2ccccc2)C(=O)N1C` here?
Answer: Its AC50 is 0.338 µM [falling, partial curve].

Question: Which AC50 does the source give for `Cc1cc(OCCCS(C)(=O)=O)cc(C)c1-c1cccc(COc2ccc3c(c2)OC[C@H]3CC(=O)O)c1` here?
Answer: The AC50 was 0.871 µM [falling, full curve, poor fit].

Question: For `Cc1ncc(Cl)cc1NCc1ccc(C(=O)NC(CC2CCCC2)C(=O)NC2CC2)s1` (stereo not given), which AC50 is on record?
Answer: Its AC50 is 19.5 µM [rising, single point].

Question: Which AC50 does the source give for `CNC(=O)[C@@H](NC(=O)[C@H](CC(C)C)[C@H](O)C(=O)NO)C(C)(C)C` here?
Answer: Its AC50 is 13.8 µM [falling, partial curve, poor fit].

Question: Which AC50 does the source give for `CC(O)c1cc(C(=O)N[C@@H](C)Cn2ccc(-c3ccc(C#N)c(Cl)c3)n2)n[nH]1` (stereo not given in full) here?
Answer: The AC50 was 11 µM [falling, partial curve].

Question: For `OC(CCN1CCCCC1)(c1ccccc1)C1CC2C=CC1C2` (stereo not given), which AC50 is on record?
Answer: The AC50 was 7.76 µM [rising, partial curve].

Question: With `Cc1cc(Oc2ccc3nc(COc4ccc(CC5SC(=O)NC5=O)cc4)n(C)c3c2)cc(C)c1N` (stereo not given) as the molecule, how does the AC50 read?
Answer: Its AC50 is 27.5 µM [falling, single point].

Question: Which AC50 does the source give for `NC1CCCN(c2c(/C=C3\SC(=O)NC3=O)cccc2-c2ccccc2)C1` (stereo not given) here?
Answer: Its AC50 is 7.76 µM [rising, partial curve, poor fit].

Question: For `COC(=O)N[C@@H](C)CNc1nccc(-c2cn(C(C)C)nc2-c2cc(Cl)cc(NS(C)(=O)=O)c2F)n1`, which AC50 is on record?
Answer: The AC50 was 17.4 µM [falling, partial curve, poor fit].

Question: Which AC50 does the source give for `Cc1cnc(NC(=O)c2cc(Oc3cnc(C(=O)N(C)C)nc3)c3cc(C)oc3c2)cn1` here?
Answer: The AC50 was 0.0219 µM [falling, full curve, poor fit].

Question: Which AC50 does the source give for `CC#CC(=O)N1CCC[C@H]1c1nc(-c2ccc(C(=O)Nc3ccccn3)cc2)c2c(N)nccn12` here?
Answer: The AC50 was 0.006 µM [rising, full curve, poor fit].

Question: With `FC(F)(F)c1ccc(CNc2ccc(Cc3c[nH]c4ncc(Cl)cc34)cn2)cn1` as the molecule, how does the AC50 read?
Answer: Its AC50 is 27.5 µM [falling, single point].

Question: With `O=C(O)c1ccc(-c2c[nH]c3ncc(-c4ccccc4)cc23)cc1C1CCCC1` as the molecule, how does the AC50 read?
Answer: Its AC50 is 0.0155 µM [falling, full curve, poor fit].

Same assay, conditions: PEO1/OlaR viability, CellTiter-Glo luminescence, 96 h; measured here: PEO4 viability

Question: With `COCCCc1sc(-c2ccccc2)nc1C(=O)Nc1ccccc1-c1nc2cc(CN3CCCC3)cnc2s1` as the molecule, how does the AC50 read?
Answer: Its AC50 is 4.77 µM [falling, partial curve, poor fit].

Question: Which AC50 does the source give for `Cn1cc(-c2ccc3c(c2)CCN3C(=O)Cc2cccc(C(F)(F)F)c2)c2c(N)ncnc21` here?
Answer: Its AC50 is 24.5 µM [falling, single point].

Question: For `Cn1ncc(NC(=O)c2nc(-c3c(F)cccc3F)sc2N)c1N1CC[C@@H](N)[C@H](F)CC1`, which AC50 is on record?
Answer: Its AC50 is 19.5 µM [falling, single point].

Question: For `C[C@]12CC[C@@H]3c4ccc(O)cc4C[C@@H](CCCCCCCCCS(=O)CCCC(F)(F)C(F)(F)F)[C@H]3[C@H]1CC[C@H]2O` (stereo not given in full), which AC50 is on record?
Answer: Its AC50 is 1.95 µM [falling, full curve, poor fit].

Question: For `Fc1ccc(-c2csc3ncnc(NCc4ccc5c(c4)OCO5)c23)cc1`, which AC50 is on record?
Answer: Its AC50 is 13.8 µM [falling, partial curve].

Question: For `CNS(=O)(=O)c1ccc2c(c1)/C(=C/c1[nH]c3c(c1CCCN1CCN(C)CC1)CCCC3)C(=O)N2`, which AC50 is on record?
Answer: Its AC50 is 27.5 µM [falling, single point].

Question: For `CC(/C=C/[C@@H]1C[C@]1(C)c1ccc2c(c1)C(C)(C)CCC2(C)C)=C\C(=O)O`, which AC50 is on record?
Answer: The AC50 was 15.5 µM [falling, partial curve].

Question: For `CC(C)(C)S(=O)(=O)c1ccc2nccc(Nc3n[nH]c4ccc(F)cc34)c2c1`, which AC50 is on record?
Answer: The AC50 was 15.5 µM [falling, partial curve, poor fit].

Question: With `CCN(CCCOc1ccc2c(Nc3cc(CC(=O)Nc4cccc(F)c4)[nH]n3)ncnc2c1)CCOP(=O)(O)O` as the molecule, how does the AC50 read?
Answer: The AC50 was 0.245 µM [falling, full curve, poor fit].

Question: With `O=C(O)Cn1nnc(-c2cc(N3CCC(Oc4cc(F)ccc4Br)CC3)no2)n1` as the molecule, how does the AC50 read?
Answer: The AC50 was 0.436 µM [falling, full curve, poor fit].

Question: For `Cc1nnc(C[C@@H]2C=C(c3ccc(Cl)cc3)c3ccccc3-n3c(C)nnc32)o1`, which AC50 is on record?
Answer: Its AC50 is 3.09 µM [rising, partial curve, poor fit].

Question: With `CCOC(=O)N[C@@H]1CC[C@@H]2[C@@H](C1)C[C@H]1C(=O)O[C@H](C)[C@H]1[C@H]2/C=C/c1ccc(-c2cccc(F)c2)cn1` as the molecule, how does the AC50 read?
Answer: The AC50 was 27.5 µM [falling, single point].

Question: With `Cc1noc(C)c1-c1ccc(-c2cc(C(N)=O)c(NC(N)=O)s2)c(O[C@H]2CCNC2)c1` as the molecule, how does the AC50 read?
Answer: The AC50 was 27.5 µM [falling, single point].

Question: For `Cc1ccc2cc(-c3c(C)ccc(C(=O)c4c(-c5ccccc5)n(C)n(-c5ccccc5)c4=O)c3N)ccc2n1`, which AC50 is on record?
Answer: The AC50 was 13.8 µM [falling, single point].

Question: Which AC50 does the source give for `CC(=O)OC[C@@H]1O[C@@H](n2ccc(=O)[nH]c2=O)[C@H](OC(C)=O)[C@H]1OC(C)=O` here?
Answer: The AC50 was 11 µM [rising, partial curve, poor fit].

Question: For `Cc1cncc2cccc(S(=O)(=O)N3CCCN(C(=O)CN)C[C@@H]3C)c12`, which AC50 is on record?
Answer: Its AC50 is 0.616 µM [falling, full curve].

Question: Which AC50 does the source give for `CC1(C(=O)O)CCC2(C)CCC3(C)C(=CC(=O)C4C5(C)CCC(OC6OC(C(=O)O)C(O)C(O)C6OC6OC(C(=O)O)C(O)C(O)C6O)C(C)(C)C5CCC43C)C2C1` (stereo not given) here?
Answer: Its AC50 is 0.0389 µM [rising, full curve, poor fit].

Question: Which AC50 does the source give for `O=C(O)[C@H](Cc1c[nH]c2ccccc12)N1C(=O)c2ccccc2C1=O` here?
Answer: Its AC50 is 24.5 µM [falling, single point].

Question: With `O=C1[C@H](CC[C@H](O)c2ccc(F)cc2)[C@@H](c2ccc(O)cc2)N1c1ccc(F)cc1` as the molecule, how does the AC50 read?
Answer: Its AC50 is 15.5 µM [falling, partial curve, poor fit].
